# The other results are listed elsewhere or left out.
# B1: Siglec-9 (Homo sapiens), Q9Y336 (protein)
# chain: MLLLLLPLLWGRERAEGQTSKLLTMQSSVTVQEGLCVHVPCSFSYPSHGWIYPGPVVHGYWFREGANTDQDAPVATNNPARAVWEETRDRFHLLGDPHTKNCTLSIRDARRSDAGRYFFRMEKGSIKWNYKHHRLSVNVTALTHRPNILIPGTLESGCPQNLTCSVPWACEQGTPPMISWIGTSVSPLDPSTTRSSVLTLIPQPQDHGTSLTCQVTFPGASVTTNKTVHLNVSYPPQNLTMTVFQGDGTVSTVLGNGSSLSLPEGQSLRLVCAVDAVDSNPPARLSLSWRGLTLCPSQPSNPGVLELPWVHLRDAAEFTCRAQNPLGSQQVYLNVSLQSKATSGVTQGVVGGAGATALVFLSFCVIFVVVRSCRKKSARPAAGVGDTGIEDANAVRGSASQGPLTEPWAEDSPPDQPPPASARSSVGEGELQYASLSFQMVKPWDSRGQEATDTEYSEIKIHR
# Experiments:
# Experiment in all cases: glycan array binding signal (z-score within array); higher = stronger binding
# Conditions in all cases: glycan notation: IUPAC condensed, linker removed
# [1] = target: Neu5Ac(a2-6)Gal(b1-4)GlcNAc(b1-2)Man(a1-3)[GlcNAc(b1-4)][Neu5Ac(a2-6)Gal(b1-4)GlcNAc(b1-2)Man(a1-6)]Man(b1-4)GlcNAc(b1-4)GlcNAc
# How it was run: (§1)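 Glycan array binding is given as a within-array Z-score, which can be read as non-binding when negative. The arrays, 3228 of them, came from the Consortium for Functional Glycomics database and were retained only where the protein sequence was available. Z-scores were averaged across arrays of the same protein sequence at different concentrations or buffers and across linkers.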
# [2] = target: Neu5Ac(a2-6)Gal(b1-4)GlcNAc(b1-2)Man(a1-3)[Man(a1-6)]Man(b1-4)GlcNAc(b1-4)GlcNAc
# How it was run: as §1
# [3] = target: Neu5Ac(a2-6)Gal(b1-4)GlcNAc(b1-2)Man(a1-3)[Neu5Ac(a2-3)Gal(b1-4)GlcNAc(b1-2)Man(a1-6)]Man(b1-4)GlcNAc(b1-4)GlcNAc
# How it was run: as §1
# [4] = target: Neu5Ac(a2-6)Gal(b1-4)GlcNAc(b1-2)Man(a1-3)[Neu5Ac(a2-6)Gal(b1-4)GlcNAc(b1-2)Man(a1-6)]Man(b1-4)GlcNAc(b1-4)GlcNAc
# How it was run: as §1
# [5] = target: Neu5Ac(a2-6)Gal(b1-4)GlcNAc(b1-2)Man(a1-3)[Neu5Ac(a2-6)Gal(b1-4)GlcNAc(b1-2)Man(a1-6)]Man(b1-4)GlcNAc(b1-4)[Fuc(a1-6)]GlcNAc
# How it was run: as §1
# [6] = target: Neu5Ac(a2-6)Gal(b1-4)GlcNAc(b1-2)Man(a1-6)Man(b1-4)GlcNAc(b1-4)GlcNAc
# How it was run: as §1
# [7] = target: Neu5Ac(a2-6)Gal(b1-4)GlcNAc(b1-2)Man(a1-6)[Gal(b1-4)GlcNAc(b1-2)Man(a1-3)]Man(b1-4)GlcNAc(b1-4)GlcNAc
# How it was run: as §1
# [8] = target: Neu5Ac(a2-6)Gal(b1-4)GlcNAc(b1-2)Man(a1-6)[GlcNAc(b1-2)Man(a1-3)]Man(b1-4)GlcNAc(b1-4)GlcNAc
# How it was run: as §1
# [9] = target: Neu5Ac(a2-6)Gal(b1-4)GlcNAc(b1-2)Man(a1-6)[Man(a1-3)]Man(b1-4)GlcNAc(b1-4)GlcNAc
# How it was run: as §1
# [10] = target: Neu5Ac(a2-6)Gal(b1-4)GlcNAc(b1-2)[Neu5Ac(a2-6)Gal(b1-4)GlcNAc(b1-4)]Man(a1-3)[GlcNAc(b1-4)][Neu5Ac(a2-6)Gal(b1-4)GlcNAc(b1-2)[Neu5Ac(a2-6)Gal(b1-4)GlcNAc(b1-6)]Man(a1-6)]Man(b1-4)GlcNAc(b1-4)GlcNAc
# How it was run: as §1
# [11] = target: Neu5Ac(a2-6)Gal(b1-4)GlcNAc(b1-2)[Neu5Ac(a2-6)Gal(b1-4)GlcNAc(b1-4)]Man(a1-3)[GlcNAc(b1-4)][Neu5Ac(a2-6)Gal(b1-4)GlcNAc(b1-4)Man(a1-6)]Man(b1-4)GlcNAc(b1-4)GlcNAc
# How it was run: as §1
# [12] = target: Neu5Ac(a2-6)Gal(b1-4)GlcNAc(b1-2)[Neu5Ac(a2-6)Gal(b1-4)GlcNAc(b1-6)]Man(a1-6)[Neu5Ac(a2-6)Gal(b1-4)GlcNAc(b1-2)Man(a1-3)][GlcNAc(b1-4)]Man(b1-4)GlcNAc(b1-4)GlcNAc
# How it was run: as §1
# [13] = target: Neu5Ac(a2-6)Gal(b1-4)GlcNAc(b1-3)Gal(b1-3)GlcNAc
# How it was run: as §1
# [14] = target: Neu5Ac(a2-6)Gal(b1-4)GlcNAc(b1-3)Gal(b1-4)GlcNAc
# How it was run: as §1
# [15] = target: Neu5Ac(a2-6)Gal(b1-4)GlcNAc(b1-3)Gal(b1-4)GlcNAc(b1-2)Man(a1-3)[Neu5Ac(a2-6)Gal(b1-4)GlcNAc(b1-3)Gal(b1-4)GlcNAc(b1-2)Man(a1-6)]GalNAc
# How it was run: as §1
# [16] = target: Neu5Ac(a2-6)Gal(b1-4)GlcNAc(b1-3)Gal(b1-4)GlcNAc(b1-3)Gal(b1-4)GlcNAc
# How it was run: as §1
# [17] = target: Neu5Ac(a2-6)Gal(b1-4)GlcNAc(b1-3)Gal(b1-4)GlcNAc(b1-3)Gal(b1-4)GlcNAc(b1-2)Man(a1-3)[Neu5Ac(a2-6)Gal(b1-4)GlcNAc(b1-3)Gal(b1-4)GlcNAc(b1-3)Gal(b1-4)GlcNAc(b1-2)Man(a1-6)]GalNAc
# How it was run: as §1
# [18] = target: Neu5Ac(a2-6)Gal(b1-4)GlcNAc(b1-3)Gal(b1-4)GlcNAc(b1-3)GalNAc
# How it was run: as §1
# [19] = target: Neu5Ac(a2-6)Gal(b1-4)GlcNAc(b1-3)Gal(b1-4)GlcNAc(b1-3)[Neu5Ac(a2-6)Gal(b1-4)GlcNAc(b1-3)Gal(b1-4)GlcNAc(b1-6)]GalNAc
# How it was run: as §1
# [20] = target: Neu5Ac(a2-6)Gal(b1-4)GlcNAc(b1-3)Gal(b1-4)GlcNAc(b1-6)[Gal(b1-3)]GalNAc
# How it was run: as §1
# [21] = target: Neu5Ac(a2-6)Gal(b1-4)GlcNAc(b1-3)Gal(b1-4)[Fuc(a1-3)]GlcNAc(b1-3)Gal(b1-4)[Fuc(a1-3)]GlcNAc
# How it was run: as §1
# [22] = target: Neu5Ac(a2-6)Gal(b1-4)GlcNAc(b1-3)GalNAc
# How it was run: as §1
# [23] = target: Neu5Ac(a2-6)Gal(b1-4)GlcNAc(b1-3)[Neu5Ac(a2-6)Gal(b1-4)GlcNAc(b1-6)]GalNAc
# How it was run: as §1
# [24] = target: Neu5Ac(a2-6)Gal(b1-4)GlcNAc(b1-6)GalNAc
# How it was run: as §1
# [25] = target: Neu5Ac(a2-6)Gal(b1-4)GlcNAc(b1-6)[Gal(b1-3)GlcNAc(b1-3)]Gal(b1-4)Glc
# How it was run: as §1
# [26] = target: Neu5Ac(a2-6)Gal(b1-4)GlcNAc(b1-6)[Gal(b1-3)]GalNAc
# How it was run: as §1
# [27] = target: Neu5Ac(a2-6)Gal(b1-4)GlcNAc6S
# How it was run: as §1
# Neu5Ac(a2-6)GalNAc = target: Neu5Ac(a2-6)GalNAc
# How it was run: as §1
# [28] = target: Neu5Ac(a2-6)GalNAc(b1-4)GlcNAc
# How it was run: as §1
# [29] = target: Neu5Ac(a2-6)GalNAc(b1-4)GlcNAc6S
# How it was run: as §1
# [30] = target: Neu5Ac(a2-6)GlcNAc(b1-4)GlcNAc
# How it was run: as §1
binder,measurement,setting,value
B1,glycan array binding signal (z-score),[1],-0.121
same,glycan array binding signal (z-score),[2],0.105
same,glycan array binding signal (z-score),[3],0.17
same,glycan array binding signal (z-score),[4],-0.234
same,glycan array binding signal (z-score),[5],0.381
same,glycan array binding signal (z-score),[6],-0.092
same,glycan array binding signal (z-score),[7],-0.105
same,glycan array binding signal (z-score),[8],-0.106
same,glycan array binding signal (z-score),[9],-0.246
same,glycan array binding signal (z-score),[10],-0.223
same,glycan array binding signal (z-score),[11],-0.219
same,glycan array binding signal (z-score),[12],-0.075
same,glycan array binding signal (z-score),[13],-0.238
same,glycan array binding signal (z-score),[14],-0.042
same,glycan array binding signal (z-score),[15],-0.262
same,glycan array binding signal (z-score),[16],-0.238
same,glycan array binding signal (z-score),[17],0.878
same,glycan array binding signal (z-score),[18],-0.136
same,glycan array binding signal (z-score),[19],0.248
same,glycan array binding signal (z-score),[20],0.086
same,glycan array binding signal (z-score),[21],-0.128
same,glycan array binding signal (z-score),[22],0.157
same,glycan array binding signal (z-score),[23],0.122
same,glycan array binding signal (z-score),[24],0.355
same,glycan array binding signal (z-score),[25],-0.081
same,glycan array binding signal (z-score),[26],-0.067
same,glycan array binding signal (z-score),[27],1.58
same,glycan array binding signal (z-score),Neu5Ac(a2-6)GalNAc,-0.041
same,glycan array binding signal (z-score),[28],0.195
same,glycan array binding signal (z-score),[29],0.164
same,glycan array binding signal (z-score),[30],-0.046
